# Experimental data from the supplement of paper PMC8728848.
# Some of the results follow.
# Assays:
# Experiment in all cases: glycan array binding signal (z-score within array); higher = stronger binding
# Settings in all cases: glycan notation: IUPAC condensed, linker removed; mutation: D325A
# GlcA(b1-3)GlcNAc = target: GlcA(b1-3)GlcNAc
# Method in brief: (§1)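 Columns mapping to the same glycan were averaged after glycan names were converted to IUPAC-condensed notation. The data come from 3228 arrays in the Consortium for Functional Glycomics database, limited to those with an available protein sequence. Binding is reported as a within-array Z-score averaged across arrays of one protein sequence and across linkers.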
# GlcA(b1-6)Gal = target: GlcA(b1-6)Gal
# Method in brief: as §1
# [1] = target: GlcNAc(a1-3)Gal(b1-4)GlcNAc
# Method in brief: as §1
# [2] = target: GlcNAc(a1-6)Gal(b1-4)GlcNAc
# Method in brief: as §1
# [3] = target: GlcNAc(b1-2)Gal(b1-3)GalNAc
# Method in brief: as §1
# [4] = target: GlcNAc(b1-2)Man(a1-3)[GlcNAc(b1-2)Man(a1-6)]Man(b1-4)GlcNAc(b1-4)GlcNAc
# Method in brief: as §1
# GlcNAc(b1-3)Gal = target: GlcNAc(b1-3)Gal
# Method in brief: as §1
# [5] = target: GlcNAc(b1-3)Gal(b1-3)GalNAc
# Method in brief: as §1
# GlcNAc(b1-3)Gal(b1-4)Glc = target: GlcNAc(b1-3)Gal(b1-4)Glc
# Method in brief: as §1
# [6] = target: GlcNAc(b1-3)Gal(b1-4)GlcNAc
# Method in brief: as §1
# [7] = target: GlcNAc(b1-3)Gal(b1-4)GlcNAc(b1-3)Gal(b1-4)GlcNAc
# Method in brief: as §1
# GlcNAc(b1-3)GalNAc = target: GlcNAc(b1-3)GalNAc
# Method in brief: as §1
# GlcNAc(b1-3)Man = target: GlcNAc(b1-3)Man
# Method in brief: as §1
# [8] = target: GlcNAc(b1-3)[GlcNAc(b1-4)][GlcNAc(b1-6)]GlcNAc
# Method in brief: as §1
# [9] = target: GlcNAc(b1-3)[GlcNAc(b1-6)]Gal(b1-4)GlcNAc
# Method in brief: as §1
# [10] = target: GlcNAc(b1-3)[GlcNAc(b1-6)]GalNAc
# Method in brief: as §1
# [11] = target: GlcNAc(b1-4)Gal(b1-4)GlcNAc
# Method in brief: as §1
# GlcNAc(b1-4)GlcNAc = target: GlcNAc(b1-4)GlcNAc
# Method in brief: as §1
# [12] = target: GlcNAc(b1-4)GlcNAc(b1-4)GlcNAc
# Method in brief: as §1
# [13] = target: GlcNAc(b1-4)GlcNAc(b1-4)GlcNAc(b1-4)GlcNAc(b1-4)GlcNAc
# Method in brief: as §1
# [14] = target: GlcNAc(b1-4)GlcNAc(b1-4)GlcNAc(b1-4)GlcNAc(b1-4)GlcNAc(b1-4)GlcNAc
# Method in brief: as §1
# [15] = target: GlcNAc(b1-4)[GlcNAc(b1-6)]GalNAc
# Method in brief: as §1
# [16] = target: GlcNAc(b1-6)Gal(b1-4)GlcNAc
# Method in brief: as §1
# GlcNAc(b1-6)GalNAc = target: GlcNAc(b1-6)GalNAc
# Method in brief: as §1
# GlcNAc3Prop(b1-4)GlcNAc = target: GlcNAc3Prop(b1-4)GlcNAc
# Method in brief: as §1
# Kdn(a2-3)Gal(b1-3)GlcNAc = target: Kdn(a2-3)Gal(b1-3)GlcNAc
# Method in brief: as §1
# Kdn(a2-3)Gal(b1-4)GlcNAc = target: Kdn(a2-3)Gal(b1-4)GlcNAc
# Method in brief: as §1
# [17] = target: Man(a1-2)Man(a1-2)Man(a1-3)Man
# Method in brief: as §1
# [18] = target: Man(a1-2)Man(a1-2)Man(a1-6)[Man(a1-3)]Man
# Method in brief: as §1
# Man(a1-2)Man(a1-3)Man = target: Man(a1-2)Man(a1-3)Man
# Method in brief: as §1
# [19] = target: Man(a1-2)Man(a1-3)[Man(a1-2)Man(a1-6)]Man
# Method in brief: as §1
# [20] = target: Man(a1-2)Man(a1-3)[Man(a1-2)Man(a1-6)]Man(a1-6)[Man(a1-2)Man(a1-2)Man(a1-3)]Man
# Method in brief: as §1
# [21] = target: Man(a1-2)Man(a1-3)[Man(a1-2)Man(a1-6)]Man(a1-6)[Man(a1-2)Man(a1-2)Man(a1-3)]Man(b1-4)GlcNAc(b1-4)GlcNAc
# Method in brief: as §1
# [22] = target: Man(a1-2)Man(a1-3)[Man(a1-6)]Man(a1-6)[Man(a1-2)Man(a1-3)]Man(b1-4)GlcNAc(b1-4)GlcNAc
# Method in brief: as §1
# [23] = target: Man(a1-2)Man(a1-6)[Man(a1-3)]Man(a1-6)[Man(a1-2)Man(a1-2)Man(a1-3)]Man
# Method in brief: as §1
# [24] = target: Man(a1-2)Man(a1-6)[Man(a1-3)]Man(a1-6)[Man(a1-2)Man(a1-2)Man(a1-3)]Man(b1-4)GlcNAc(b1-4)GlcNAc
# Method in brief: as §1
# Man(a1-3)[Man(a1-6)]Man = target: Man(a1-3)[Man(a1-6)]Man
# Method in brief: as §1
binder,measurement,setting,value
Surfactant Protein D (Human); Neck + Carbohydrate Recognition Domain (NCRD) (Homo sapiens) (protein) MLLFLLSALVLLTQPLGYLEAEMKTYSHRTMPSACTLVMCSSVESGLPGRDRDGREGPRGEKGDPGLPGAAGQAGMPGQAGPVGPKGDNGSVGEPGPKGDTGPSGPPGPPGVPGPAGREGALGKQGNIGPQGKPGPKGEAGPKGEVGAPGMQGSAGARGLAGPKGERGVPGERGVPGNTGAAGSAGAMGPQGSPGARGPPGLKGDKGIPGDKGAKGESGLPDVASLRQQVEALQGQVQHLQAAFSQYKKVELFPNGQSVGEKIFKTAQFVKPFTEAQLLCTQAGGQLASPRSAAENAALQQLVVAKNEAAFLSMTDSKTEGKFTYPTGESLVYSNWAPGEPNDAGGSEDCVEIFTNGKWNDRACGEKRLVVCEF,glycan array binding signal (z-score),GlcA(b1-3)GlcNAc,-0.257
same,glycan array binding signal (z-score),GlcA(b1-6)Gal,-0.26
same,glycan array binding signal (z-score),[1],-0.255
same,glycan array binding signal (z-score),[2],-0.271
same,glycan array binding signal (z-score),[3],-0.277
same,glycan array binding signal (z-score),[4],2.67
same,glycan array binding signal (z-score),GlcNAc(b1-3)Gal,-0.271
same,glycan array binding signal (z-score),[5],-0.256
same,glycan array binding signal (z-score),GlcNAc(b1-3)Gal(b1-4)Glc,-0.259
same,glycan array binding signal (z-score),[6],-0.269
same,glycan array binding signal (z-score),[7],-0.253
same,glycan array binding signal (z-score),GlcNAc(b1-3)GalNAc,-0.267
same,glycan array binding signal (z-score),GlcNAc(b1-3)Man,-0.275
same,glycan array binding signal (z-score),[8],0.662
same,glycan array binding signal (z-score),[9],0.163
same,glycan array binding signal (z-score),[10],-0.171
same,glycan array binding signal (z-score),[11],-0.128
same,glycan array binding signal (z-score),GlcNAc(b1-4)GlcNAc,-0.265
same,glycan array binding signal (z-score),[12],-0.253
same,glycan array binding signal (z-score),[13],-0.239
same,glycan array binding signal (z-score),[14],-0.274
same,glycan array binding signal (z-score),[15],-0.031
same,glycan array binding signal (z-score),[16],-0.26
same,glycan array binding signal (z-score),GlcNAc(b1-6)GalNAc,-0.264
same,glycan array binding signal (z-score),GlcNAc3Prop(b1-4)GlcNAc,-0.252
same,glycan array binding signal (z-score),Kdn(a2-3)Gal(b1-3)GlcNAc,-0.246
same,glycan array binding signal (z-score),Kdn(a2-3)Gal(b1-4)GlcNAc,-0.26
same,glycan array binding signal (z-score),[17],5.67
same,glycan array binding signal (z-score),[18],4.19
same,glycan array binding signal (z-score),Man(a1-2)Man(a1-3)Man,1.8
same,glycan array binding signal (z-score),[19],3.81
same,glycan array binding signal (z-score),[20],5.16
same,glycan array binding signal (z-score),[21],4.21
same,glycan array binding signal (z-score),[22],4.58
same,glycan array binding signal (z-score),[23],4.8
same,glycan array binding signal (z-score),[24],4.37
same,glycan array binding signal (z-score),Man(a1-3)[Man(a1-6)]Man,0.213
